Hit rate of the full screen: of about 48,000 compounds, about 1,200 (2.5%) were called active. About 2% were inconclusive and are not listed.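 The calls were made as follows: active = activation of at least 60% and not above a set upper limit (about 1 call in 100 departs from these limits); inconclusive = activation of 40% to 60%, or above that upper limit; inactive = activation under 40%.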 The list shows a part of the results.
What follows are compounds tested against Probable G-protein coupled receptor 32 (Homo sapiens) (UniProt O75388) (assay: qHTS for Agonists of Human Resolvin D1 Receptor DRV1). Details: CHO-K1 GPR32 beta-arrestin PathHunter luminescence, 90 min; at 76.9 µM; active compounds read high; zero percent set by DMSO-only wells.
Sequence of UniProt O75388 (O75388 whole entry, looked up, the tested form may be a part): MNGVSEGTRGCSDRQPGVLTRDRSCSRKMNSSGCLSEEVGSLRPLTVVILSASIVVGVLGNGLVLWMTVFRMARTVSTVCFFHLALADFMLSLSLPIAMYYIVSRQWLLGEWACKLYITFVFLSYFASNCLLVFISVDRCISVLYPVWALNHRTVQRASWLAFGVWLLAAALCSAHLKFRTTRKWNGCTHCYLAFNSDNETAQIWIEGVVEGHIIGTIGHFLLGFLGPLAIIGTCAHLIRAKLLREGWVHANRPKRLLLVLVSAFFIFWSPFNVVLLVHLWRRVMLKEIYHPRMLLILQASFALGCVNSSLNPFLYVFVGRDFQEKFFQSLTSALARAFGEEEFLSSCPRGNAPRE
Summary of the method: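 Agonism was scored as beta-arrestin recruitment to ProLink-fused GPR32 in stably transfected CHO-K1 cells, giving a chemiluminescent beta-Gal signal; compounds were incubated 90 min at 37 °C.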
With `COc1ccc(OC)c(NC(=O)C(NS(=O)(=O)c2ccc3c(c2)CCCC(=O)N3)C(C)C)c1` (stereo unspecified) the activation was inactive: 8.23%. With `COc1ccc(NC(=O)CC2C(=O)N(c3cccc(OC)c3)C(=O)N2Cc2cccnc2)cc1` (stereo unspecified) the activation was inactive: 0.223%. `Cc1ccc2nc(Cl)c3cc(C(=O)NC4CCCCC4)sc3c2c1` was tested, and the activation was inactive: -6.58%. In the case of `CN1CCc2nc3sc(C(=O)Nc4c(F)cccc4F)c(N)c3cc2C1`, the activation is reported as inactive: 0.524%. For `NS(=O)(=O)c1ccc(Cl)c(S(N)(=O)=O)c1`, the activation was inactive: 5.32%. In the case of `CCOC(=O)c1ccc(NC(=O)c2nsc3ccccc23)cc1`, the activation is reported as inactive: -27.7%. For `CCOC(=O)c1cc(S(=O)(=O)N2CCN(c3cc(Cl)ccc3C)CC2)[nH]n1`, the activation was inactive: -30.1%. With `CCOc1ccc(NC(=O)Cn2c(=O)c(CNc3ccc(OC)cc3)cc3ccc(OC)cc32)cc1` the activation was inactive: 6.63%. With `Cc1ccc(-c2cnc(NCc3c(F)cccc3Cl)n2C)cc1` the activation was inactive: -42.3%. For `Cc1cc(=O)n2nc(N3CCC(C(=O)NCc4ccccc4Cl)CC3)sc2n1`, the activation was inactive: -20.9%. With `Cc1nc(-c2cccc(S(=O)(=O)N3CCC(C(=O)NCc4ccccc4)CC3)c2)no1` the activation was inactive: -14.3%. `CCc1ccc(OCC(=O)Nc2c(C(=O)c3ccccc3)oc3ccccc23)cc1` was tested, and the activation was inactive: -20.3%. In the case of `CCCN(C(=O)Cn1cnc2sc(C)c(S(=O)(=O)N3CCN(c4ncccn4)CC3)c2c1=O)c1cccc(C)c1`, the activation is reported as inactive: -4.03%. In the case of `Cc1ccccc1NC(=O)CCc1c(C)nc2c(c1C)c(=O)n(C)c(=O)n2C`, the activation is reported as inactive: 5.53%. For `COc1ccc(NS(=O)(=O)c2ccc3c(c2)oc(=O)n3C)cc1Cl`, the activation was inactive: 8.51%. For `COc1ccc(OC)c(S(=O)(=O)Nc2ccc3[nH]c(=O)[nH]c3c2)c1`, the activation was inactive: -14%. `Cc1cccc(CN2C(=O)c3ccccc3S(=O)(=O)c3ccc(C(=O)N4CCCC4)cc32)c1` was tested, and the activation was inactive: -19.7%. For `Cc1ccc(C(=O)Nc2cc3cc(Cl)ccc3oc2=O)cc1`, the activation was active: 61.8%. In the case of `Cc1ccc(-c2nc(CCNC(=O)C(=O)Nc3ccc(F)cc3F)cs2)cc1`, the activation is reported as inactive: -8.78%. In the case of `Cc1ccc2c(c1)N(CC(=O)NCCCN1CCCCC1)C(=O)c1cccnc1O2`, the activation is reported as inactive: 1.31%. With `COc1ccccc1NCc1nnc2n1CCCCC2` the activation was inactive: 25%. In the case of `COc1ccccc1CNC(=O)CCCN1C(=O)CCn2nc(-c3cn(C)c4ccccc34)cc21`, the activation is reported as inactive: 5.04%. For `Cc1ccc(-c2nc3sc(CCNC(=O)c4ccco4)c(C)n3n2)cc1`, the activation was active: 64.9%. In the case of `CC(C)C(=O)Nc1c(C(=O)N2CCN(c3ccccc3F)CC2)oc2ccccc12`, the activation is reported as inactive: -17.5%. In the case of `Fc1ccc(C(c2nnc(-c3ccccc3)o2)N2CCN(c3ccccc3)CC2)c(Cl)c1` (stereo unspecified), the activation is reported as inactive: -25.7%. With `Cc1ccc(CSc2nc3ccncc3n2Cc2nc(-c3ccc(Cl)cc3)oc2C)cc1` the activation was inactive: -8.97%. For `CCOc1ccc(S(=O)(=O)N(C(C)=O)c2ccc3oc(C)c(C(=O)OC)c3c2)cc1`, the activation was inactive: 14.6%. `COc1cc(Cl)c(C)cc1NC(=O)c1nn(-c2ccc(C)cc2)c(=O)n(C)c1=O` was tested, and the activation was inactive: 10.8%. With `COc1cccc(NC(=O)CSc2c(C)cnc3c2c(=O)n(C)c(=O)n3C)c1` the activation was inactive: -13.8%. With `CCCOC(=O)c1c(NC(=O)c2cc3nc(-c4ccc(OC)cc4)cc(C(F)(F)F)n3n2)sc2c1CCCC2` the activation was inactive: 16%. For `CCOc1ccc(N2CC(NC(=O)c3cc4ccccc4o3)CC2=O)cc1` (stereo unspecified), the activation was inactive: -12.8%. `Cc1ccc(C)c(NC(=O)Cn2c(-c3nonc3N)nc3ccccc32)c1` was tested, and the activation was inactive: -1.38%. `COc1ccc2oc(=O)c(C(=O)N3CCN(c4cc(Cl)ccc4Cl)CC3)cc2c1` was tested, and the activation was inactive: -12.1%. `CCOC(=O)c1ccc(NC(=O)C(=O)NCCc2ccc(OC)cc2)cc1` was tested, and the activation was inactive: 26.3%. In the case of `CCCC(=O)Nc1cccc(-c2nc3ncccc3o2)c1`, the activation is reported as inactive: 9.51%. With `COc1ccccc1N1CCN(C(=O)c2cnn(C(C)(C)C)c2C2CCN(C(=O)OC(C)(C)C)CC2)CC1` the activation was inactive: -18.8%. In the case of `COc1ccc(N2CCN(C(=O)c3c(C)oc4nc(C)nc(N5CCCC5)c34)CC2)cc1`, the activation is reported as inactive: -17.6%. `Cc1ccc(N(C)S(=O)(=O)c2c(-c3ccccc3)csc2C(=O)O)cc1` was tested, and the activation was inactive: 10.3%. With `Cc1cc2nc(-c3cccc(NC(=O)COc4ccc(C(C)C)cc4)c3)oc2cc1C` the activation was inactive: -6.15%. In the case of `CCCCCCCCCCCCOCCOCCOCCOCCOCCOCCOCCOCCOCCO`, the activation is reported as active: 99%. In the case of `CS(=O)(=O)c1ccc(-c2cn3ccccc3n2)cc1`, the activation is reported as inactive: 8.51%. In the case of `COc1ccc(-c2nc(C)c(CCNC(=O)c3cccs3)s2)cc1`, the activation is reported as inactive: 26%. With `Cc1ccccc1-c1nnc(SCC(=O)N2CCCc3ccccc32)o1` the activation was inactive: -2.72%. For `CCCNC(=O)c1c(NC(=O)c2ccccc2F)sc2c1CCCCC2`, the activation was inactive: 8.5%. In the case of `Cc1nc(-c2ccc(S(=O)(=O)Nc3ccc(OC(F)(F)F)cc3)cc2)co1`, the activation is reported as active: 114%. With `CC(C)c1ccc(N2C(=O)CSC23C(=O)N(Cc2ccccc2F)c2ccccc23)cc1` (stereo unspecified) the activation was inactive: 2.6%. In the case of `Cc1ccc(NC(=O)N2CCC(CN3CCCCCC3)CC2)c(Cl)c1`, the activation is reported as inactive: -17.2%. For `COc1ccc(-c2nc(SCC(=O)Nc3ccc4c(c3)OCO4)c(-c3ccc(F)cc3)[nH]2)cc1OC`, the activation was inactive: 1.3%. For `O=C1c2ccccc2C(=O)C1(c1ccccc1)N1CCN(c2cccc(C(F)(F)F)c2)CC1`, the activation was inactive: -21.9%. With `CCOc1ccccc1NC(=O)CCc1nc(-c2cccc(C)c2)no1` the activation was inactive: -8.52%. In the case of `CC(C)Oc1ccc(CNS(=O)(=O)c2csc(C(N)=O)c2)cc1`, the activation is reported as inactive: 13.7%. `Cc1cccc(C(=O)OCc2cc(=O)n3nc(C4CC4)sc3n2)c1` was tested, and the activation was inactive: 0.555%. In the case of `Cc1ccc(-c2nc(C(=O)Nc3cccc(C#N)c3)c3n2CCCCC3)cc1`, the activation is reported as inactive: -7.6%. For `Cc1nc2nncn2c(Nc2ccc(F)cc2)c1C`, the activation was inactive: -4.48%. For `COc1ccc(Cl)cc1NC(=O)c1cc2ccccn2n1`, the activation was inactive: -0.256%. In the case of `COc1cccc(-n2c(=O)c3sccc3n(Cc3cc(=O)n4cc(Cl)ccc4n3)c2=O)c1`, the activation is reported as inactive: -17.5%.

— PubChem BioAssay AID1346428 (National Center for Advancing Translational Sciences (NCATS), 2018)
Also: 0% is about no effect.
